Measurements reported in the supplement of paper PMC11417369.
The other results are listed elsewhere or left out.

test system: PfAP2-HC AP2 domain (GST-tagged); experiment: gcPBM binding intensity (ln(normalized median fluorescence intensity)); higher = stronger DNA binding
In short: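 DNA-binding domains from P. falciparum, fused to GST and produced in E. coli, were put on an Agilent 4 × 180k double-stranded probe array for 1 h in 1× PBS holding 1% milk, 0.2 mg/ml BSA, 0.5% salmon testes DNA and 0.03% Triton X-100. Probes were primer-extended, 36 bp long and drawn from intergenic genomic regions, with negative controls included. After Alexa488 anti-GST antibody detection and a 488 nm scan, binding intensity was set as the highest Masliner-normalised natural-log median intensity across replicate spots of either probe orientation.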

Sequence	gcPBM binding intensity (ln)
ATATATATATTTGTATGTACATATCATATTGTGTGT [XGTACX_site1580]	10.2
AAGATATTTGAATATACACACGATTTAAATTTAATA [CACACA_site3866]	9.67
GTATAACTTTTGCGCGTACACACATTTATCCTCTTT [CACACA_site208]	10.7
ACGTATAATATGTACACACACATATATACAAAAAAA [CACACA_site917]	10
TTTCTTTTTTTATAATCCACATTGGGAAAATCAAAA [TGCATGCA_negctrl_site159]	9.19
AAAGTTGTTACGAACATACACACGAACATACTCACG [CACACA_site604]	10
TAGAATATCCCCTACACACCCAAATAATTTACAAAT [CACACA_site4825]	9.86
AAAATATTTATTACTTCACACATTATTGTATTTATA [CACACA_site5082]	9.77
CATATATTATTATATGCACACATGAAAATATACAAA [CACACA_site2795]	9.83
TTGAAATATACGTAAGTAAATTTCATTTGGTTGTGT [XGTACX_negctrl_site600]	9.75
GTATTATATATATAGGTGCATATATATATATAAATA [GTGCAC_site9787]	9.62
AAATATAAAGGATTAATATTATATATATATATATAT [XGTACX_negctrl_site211]	9.6
GTTTGGTGGTGTTTTGGTACGTACGGGGGGGTATGT [XGTACX_site1983]	10.5
TTTTTTTTTTTTTATTGTACTTATTTTTTTATGTTT [XGTACX_site7725]	9.86
TATGTATTTTTATGCACACATGCGTGGCTTATATAA [CACACA_site387]	9.79
ATATTTTCTTTAAATTGTACATATTGTGATACAAAA [XGTACX_site5886]	9.27
ATTTTTTTTTTTTTTTTTTTTTTGTTTATACAAAAT [CACACA_negctrl_site1241]	9.33
TTTCATTTAGCTTTTACACACTATATATTATTGATT [CACACA_site16]	9.9
TATATACATACATGTAGTACCTAATTCGGTCCCGTA [XGTACX_site2702]	9.56
ACACATACATATACATACACATTGTTTTCATGCATC [XGTACX_negctrl_site126]	10.2
TATATGTGTCTACAGGTGCATATATCATATATTGCT	9.62
TAAATAAATTTATACACACACACACGGATATAAATA [CACACA_site6532]	10.6
TATAAATATTTATACACACACATATATTTATATATC [CACACA_site6366]	10.2
TTGCATTTTCTAGTAACACACAATTAGCGTTGCTGT [CACACA_site3594]	10
